Source: publication PMC9911399, “Two distinct binding modes provide the RNA-binding protein RbFox with extraordinary sequence specificity”
Numbering of substitutions follows the chain as printed; changes in the protein carry UniProt numbers. The list shows a part of the results.

T1: RBFOX1 RRM RbFoxmut (Fox-RRM*) (Homo sapiens, UniProt Q9NWB1 109-208, R118D;E147R;N151S;E152T)
T1 sequence: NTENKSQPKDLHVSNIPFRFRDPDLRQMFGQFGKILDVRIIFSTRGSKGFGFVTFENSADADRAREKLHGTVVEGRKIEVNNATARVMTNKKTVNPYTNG

B1: GAGCCCA (DNA:RNA)
RNA: GGGAGACCGGAAUUCAGAUUGUCCGAGCCCAUUAAAUCCCGUCGUAGCCACCA
DNA 1: CAATCTGAATTCCGGTCTCCC
DNA 2: TGGTGGCTACGACGGGATT
B2: UUGUGAG (DNA:RNA)
RNA: B1 RNA with G25U, A26U, C28U, C29G, C30A, A31G
DNA 1: CAATCTGAATTCCGGTCTCCC
DNA 2: TGGTGGCTACGACGGGATT
B3: UGGGGGU (DNA:RNA)
RNA: B1 RNA with G25U, A26G, C28G, C29G, C30G, A31U
DNA 1: CAATCTGAATTCCGGTCTCCC
DNA 2: TGGTGGCTACGACGGGATT
B4: AGUUGAU (DNA:RNA)
RNA: GGGAGACCGGAAUUCAGAUUGUCCAGUUGAUUUAAAUCCCGUCGUAGCCACCA
DNA 1: CAATCTGAATTCCGGTCTCCC
DNA 2: TGGTGGCTACGACGGGATT
B5: CCGUACA (DNA:RNA)
RNA: B1 RNA with G25C, A26C, C28U, C29A
DNA 1: CAATCTGAATTCCGGTCTCCC
DNA 2: TGGTGGCTACGACGGGATT
B6: UAUUGUG (DNA:RNA)
RNA: B4 RNA with A25U, G26A, A30U, U31G
DNA 1: CAATCTGAATTCCGGTCTCCC
DNA 2: TGGTGGCTACGACGGGATT
B7: GGAUUAU (DNA:RNA)
RNA: B4 RNA with A25G, U27A, G29U
DNA 1: CAATCTGAATTCCGGTCTCCC
DNA 2: TGGTGGCTACGACGGGATT
B8: CGGUCUU (DNA:RNA)
RNA: B4 RNA with A25C, U27G, G29C, A30U
DNA 1: CAATCTGAATTCCGGTCTCCC
DNA 2: TGGTGGCTACGACGGGATT
B9: ACCCACU (DNA:RNA)
RNA: B4 RNA with G26C, U27C, U28C, G29A, A30C
DNA 1: CAATCTGAATTCCGGTCTCCC
DNA 2: TGGTGGCTACGACGGGATT
B10: UGACAUA (DNA:RNA)
RNA: B1 RNA with G25U, A26G, G27A, C29A, C30U
DNA 1: CAATCTGAATTCCGGTCTCCC
DNA 2: TGGTGGCTACGACGGGATT
B11: AGAUGUA (DNA:RNA)
RNA: B4 RNA with U27A, A30U, U31A
DNA 1: CAATCTGAATTCCGGTCTCCC
DNA 2: TGGTGGCTACGACGGGATT
B12: UGCCUCA (DNA:RNA)
RNA: B1 RNA with G25U, A26G, G27C, C29U
DNA 1: CAATCTGAATTCCGGTCTCCC
DNA 2: TGGTGGCTACGACGGGATT
B13: UCAACGC (DNA:RNA)
RNA: B1 RNA with G25U, A26C, G27A, C28A, C30G, A31C
DNA 1: CAATCTGAATTCCGGTCTCCC
DNA 2: TGGTGGCTACGACGGGATT
B14: UCCAGCC (DNA:RNA)
RNA: B4 RNA with A25U, G26C, U27C, U28A, A30C, U31C
DNA 1: CAATCTGAATTCCGGTCTCCC
DNA 2: TGGTGGCTACGACGGGATT
B15: CGAGUCU (DNA:RNA)
RNA: B4 RNA with A25C, U27A, U28G, G29U, A30C
DNA 1: CAATCTGAATTCCGGTCTCCC
DNA 2: TGGTGGCTACGACGGGATT
B16: GGGUGAA (DNA:RNA)
RNA: B4 RNA with A25G, U27G, U31A
DNA 1: CAATCTGAATTCCGGTCTCCC
DNA 2: TGGTGGCTACGACGGGATT
B17: GACCAUC (DNA:RNA)
RNA: B1 RNA with G27C, C29A, C30U, A31C
DNA 1: CAATCTGAATTCCGGTCTCCC
DNA 2: TGGTGGCTACGACGGGATT
B18: UGAAUCA (DNA:RNA)
RNA: B1 RNA with G25U, A26G, G27A, C28A, C29U
DNA 1: CAATCTGAATTCCGGTCTCCC
DNA 2: TGGTGGCTACGACGGGATT
B19: UAACUGU (DNA:RNA)
RNA: B1 RNA with G25U, G27A, C29U, C30G, A31U
DNA 1: CAATCTGAATTCCGGTCTCCC
DNA 2: TGGTGGCTACGACGGGATT
B20: ACAGAAA (DNA:RNA)
RNA: B4 RNA with G26C, U27A, U28G, G29A, U31A
DNA 1: CAATCTGAATTCCGGTCTCCC
DNA 2: TGGTGGCTACGACGGGATT
B21: GCAGUCG (DNA:RNA)
RNA: B1 RNA with A26C, G27A, C28G, C29U, A31G
DNA 1: CAATCTGAATTCCGGTCTCCC
DNA 2: TGGTGGCTACGACGGGATT
B22: UGACCCU (DNA:RNA)
RNA: B1 RNA with G25U, A26G, G27A, A31U
DNA 1: CAATCTGAATTCCGGTCTCCC
DNA 2: TGGTGGCTACGACGGGATT
B23: CCCGGAG (DNA:RNA)
RNA: B4 RNA with A25C, G26C, U27C, U28G, U31G
DNA 1: CAATCTGAATTCCGGTCTCCC
DNA 2: TGGTGGCTACGACGGGATT
B24: GGGUUCU (DNA:RNA)
RNA: B4 RNA with A25G, U27G, G29U, A30C
DNA 1: CAATCTGAATTCCGGTCTCCC
DNA 2: TGGTGGCTACGACGGGATT
B25: CUAAGAC (DNA:RNA)
RNA: B4 RNA with A25C, G26U, U27A, U28A, U31C
DNA 1: CAATCTGAATTCCGGTCTCCC
DNA 2: TGGTGGCTACGACGGGATT
B26: AUUCUCU (DNA:RNA)
RNA: B4 RNA with G26U, U28C, G29U, A30C
DNA 1: CAATCTGAATTCCGGTCTCCC
DNA 2: TGGTGGCTACGACGGGATT
B27: UUAAUGA (DNA:RNA)
RNA: B1 RNA with G25U, A26U, G27A, C28A, C29U, C30G
DNA 1: CAATCTGAATTCCGGTCTCCC
DNA 2: TGGTGGCTACGACGGGATT
B28: AGGGUGA (DNA:RNA)
RNA: B4 RNA with U27G, U28G, G29U, A30G, U31A
DNA 1: CAATCTGAATTCCGGTCTCCC
DNA 2: TGGTGGCTACGACGGGATT
B29: GACAUCG (DNA:RNA)
RNA: B1 RNA with G27C, C28A, C29U, A31G
DNA 1: CAATCTGAATTCCGGTCTCCC
DNA 2: TGGTGGCTACGACGGGATT
B30: UAAGCCA (DNA:RNA)
RNA: B1 RNA with G25U, G27A, C28G
DNA 1: CAATCTGAATTCCGGTCTCCC
DNA 2: TGGTGGCTACGACGGGATT
B31: UAAUCCA (DNA:RNA)
RNA: B1 RNA with G25U, G27A, C28U
DNA 1: CAATCTGAATTCCGGTCTCCC
DNA 2: TGGTGGCTACGACGGGATT

biological target: T1, RBFOX1 RRM RbFoxmut (Fox-RRM*); test: EMSA; HiTS-Eq, 1 nM pool, 10 min; buffer printed only for the single-RNA assays: 10 mM Tris pH 7.5, 150 mM NaCl, 3.4 mM EDTA, 0.001% NP-40, 30 C; conditions: tags: His6 N-terminal (pET28a); label: 5' 32P
In short: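 Purified RbFox RRM, wild type or mutant, was incubated for 10 min in 50 µL with 1 nM of a 5′-radiolabelled RNA pool carrying 7 randomized nucleotides, whose flanks were annealed to DNA oligonucleotides, over a series of increasing protein concentrations. Unbound RNA was resolved on 8% native PAGE, cut out, reverse-transcribed, barcoded by PCR and sequenced on an Illumina HiSeq 2500. Relative association constants were derived from changes in read counts for each RNA species versus the control reaction and normalised to the cognate motif.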

Row | Binder | binding signal
1 | B1 | 0.0512 KA relative to UGCAUGU
2 | B2 | 0.139 KA relative to UGCAUGU
3 | B3 | 0.12 KA relative to UGCAUGU
4 | B4 | 0.0988 KA relative to UGCAUGU
5 | B5 | 0.0799 KA relative to UGCAUGU
6 | B6 | 0.142 KA relative to UGCAUGU
7 | B7 | 0.0977 KA relative to UGCAUGU
8 | B8 | 0.0689 KA relative to UGCAUGU
9 | B9 | 0.1 KA relative to UGCAUGU
10 | B10 | 0.123 KA relative to UGCAUGU
11 | B11 | 0.212 KA relative to UGCAUGU
12 | B12 | 0.118 KA relative to UGCAUGU
13 | B13 | 0.0748 KA relative to UGCAUGU
14 | B14 | 0.0757 KA relative to UGCAUGU
15 | B15 | 0.0646 KA relative to UGCAUGU
16 | B16 | 0.115 KA relative to UGCAUGU

Row | Binder | binding signal
17 | B17 | 0.0446 KA relative to UGCAUGU
18 | B18 | 0.228 KA relative to UGCAUGU
19 | B19 | 0.0701 KA relative to UGCAUGU
20 | B20 | 0.097 KA relative to UGCAUGU
21 | B21 | 0.0875 KA relative to UGCAUGU
22 | B22 | 0.0476 KA relative to UGCAUGU
23 | B23 | 0.0933 KA relative to UGCAUGU
24 | B24 | 0.14 KA relative to UGCAUGU
25 | B25 | 0.0687 KA relative to UGCAUGU
26 | B26 | 0.0957 KA relative to UGCAUGU
27 | B27 | 0.0717 KA relative to UGCAUGU
28 | B28 | 0.124 KA relative to UGCAUGU
29 | B29 | 0.0779 KA relative to UGCAUGU
30 | B30 | 0.0999 KA relative to UGCAUGU
31 | B31 | 0.0724 KA relative to UGCAUGU
